About 450 (0.94%) of roughly 48,000 compounds were called active. Roughly 19% stayed inconclusive and do not appear here. Calls come from the whole dose curve; as a rule, active = well fitted inhibition curve with a large enough effect; inconclusive = small, poorly fitted or top-dose-only effect; inactive = no such curve, though single readings can be large or run the other way. This is one part of the list.
test: Primary qHTS for Identification of Small Molecule Inhibitors of Huntingtin Promoter Activity; conditions: HEK293 HTT promoter firefly luciferase reporter (activity 0% = vehicle and -100% = no light), 24 h; series mostly up to 57.5 µM; activity change, negative = inhibition: at the top concentration; note: nearly all actives have a fitted effect of over 50% in size
Outline: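 Luminescence was read after Dual-Glo reagent and a 10 min room-temperature incubation. Values were normalized to vehicle (0% activity) and zero RLU (-100% activity). Reporter HEK293 cells had been exposed to compounds (up to 57.5 uM final) for 24 h.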
Potency is the fitted concentration of half-maximal effect.

Activity change, negative = inhibition, inactive:
COc1ccc(-c2cc3nc(C)c(CCC(=O)NCCc4ccc(Cl)cc4)c(C)n3n2)c(OC)c1 -17.2%, O=C(CN1C(=O)COc2ccc(S(=O)(=O)N3CCCCCC3)cc21)N1CCN(c2ccc(F)cc2)CC1 -13.6%, Fc1cc(-c2cccc3ncc(-c4cnn(C5CCNCC5)c4)nc23)cc(F)c1CN1CCOCC1 -9.86%, Cc1ccc(Cn2c(=O)c3cccnc3n(Cc3ccc(C)cc3)c2=O)cc1 -4.87%, Cc1ccc(Cn2c(=O)n(-c3cccc(C(F)(F)F)c3)c(=O)c3c(C)c(C)sc32)c(C)c1 -5.59%, Cc1ccc(CSc2ncc(Cl)c(C(=O)Oc3ccccc3F)n2)cc1 31.8%, Cc1cn(C)c(CC(=O)Nc2cccc(C#N)c2)c1C(=O)O -6.64%, Cc1ccc(-c2nn3c(=O)cc(CN4CCN(C(=O)Nc5cccc(C(F)(F)F)c5)CC4)nc3s2)cc1 3.9%, Cc1ccc(CCNC(=O)c2cnc3c(-c4ccc(F)cc4)c(C)nn3c2C)cc1 3.74%, O=C(CCn1c(=O)c2ccccc2n(Cc2cccc(F)c2)c1=O)NCc1ccc2c(c1)OCO2 -8.99%, COc1cc(OC)c(OC)cc1CN1CCc2nc(N3CCN(C)CC3)ncc2C1 -19.4%, CCc1nn(CC(=O)NCc2ccc(C)cc2)c(=O)c2cc3occc3n12 -10.6%, COc1ccc(N2CCN(c3nc4ccc(C(=O)c5ccccc5)cc4n4cnnc34)CC2)cc1 -12%, COc1ccc(NC(=O)Cc2c(C(=O)O)[nH]c3ccccc23)cc1OC -16.5%, CCOC(=O)c1c(C)n(C)c2ccc(O)cc12, Cc1ccc(NC(=O)c2oc3ccc(S(=O)(=O)N4CCOCC4)cc3c2C)c(C)c1 -9.96%, COc1ccc(CNC(=O)Cc2coc3ccc(C)cc23)cc1 -15.7%, COc1cc(C2c3c(oc4ccc(F)cc4c3=O)C(=O)N2Cc2ccc3c(c2)OCO3)ccc1O (stereo unspecified) 1.07%, CCCCN(CC)C(=O)c1c[nH]c2ccc(S(=O)(=O)N(C)c3ccc(Cl)cc3)cc2c1=O -26.2%, COc1ccc(C(=O)Nc2ccc3nc4c(c(Nc5ccccc5OC)c3c2)CCCC4)c(OC)c1 -20.9%, COC(=O)c1cccnc1-n1c(=O)c2cccnc2n(CC(=O)Nc2cccc(C)c2)c1=O -0.385%, CC(C)Oc1ccc(CNC(=O)c2ccc3c(c2)nc2n3CCOC2)cc1 35.5%, COc1cc(NC(=O)N2CCSc3ccccc32)cc(OC)c1OC -5.45%, CCN(c1ccccc1C)S(=O)(=O)c1nnc(NC(=O)c2ccccc2C)s1 -28.2%, Nc1cc(-c2ccncc2)c[nH]c1=O 2.99%

Potency, active:
CCOc1ccc(CN2CCN(Cc3ccc4c(c3)c3ccccc3n4CC)CC2)cc1 31.6 µM
